Data on 31 molecules can be found in paper PMC9911399, “Two distinct binding modes provide the RNA-binding protein RbFox with extraordinary sequence specificity”.

T1: RBFOX1 RRM (Homo sapiens, UniProt Q9NWB1 109-208)
T1 sequence: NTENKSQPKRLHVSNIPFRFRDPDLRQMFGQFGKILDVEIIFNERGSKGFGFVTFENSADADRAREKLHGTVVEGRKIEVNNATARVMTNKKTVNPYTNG

B1: CCGAGCC (DNA:RNA)
RNA: GGGAGACCGGAAUUCAGAUUGUCCCCGAGCCUUAAAUCCCGUCGUAGCCACCA
DNA 1: CAATCTGAATTCCGGTCTCCC
DNA 2: TGGTGGCTACGACGGGATT
B2: GCCAUCU (DNA:RNA)
RNA: B1 RNA with C25G, G27C, G29U, C31U
DNA 1: CAATCTGAATTCCGGTCTCCC
DNA 2: TGGTGGCTACGACGGGATT
B3: UCCUCAG (DNA:RNA)
RNA: B1 RNA with C25U, G27C, A28U, G29C, C30A, C31G
DNA 1: CAATCTGAATTCCGGTCTCCC
DNA 2: TGGTGGCTACGACGGGATT
B4: UGCUCUG (DNA:RNA)
RNA: GGGAGACCGGAAUUCAGAUUGUCCUGCUCUGUUAAAUCCCGUCGUAGCCACCA
DNA 1: CAATCTGAATTCCGGTCTCCC
DNA 2: TGGTGGCTACGACGGGATT
B5: GGCAAGC (DNA:RNA)
RNA: B1 RNA with C25G, C26G, G27C, G29A, C30G
DNA 1: CAATCTGAATTCCGGTCTCCC
DNA 2: TGGTGGCTACGACGGGATT
B6: AAGUCCU (DNA:RNA)
RNA: B1 RNA with C25A, C26A, A28U, G29C, C31U
DNA 1: CAATCTGAATTCCGGTCTCCC
DNA 2: TGGTGGCTACGACGGGATT
B7: UUCCUCC (DNA:RNA)
RNA: B1 RNA with C25U, C26U, G27C, A28C, G29U
DNA 1: CAATCTGAATTCCGGTCTCCC
DNA 2: TGGTGGCTACGACGGGATT
B8: AAUAGAU (DNA:RNA)
RNA: B1 RNA with C25A, C26A, G27U, C30A, C31U
DNA 1: CAATCTGAATTCCGGTCTCCC
DNA 2: TGGTGGCTACGACGGGATT
B9: CCCUGUG (DNA:RNA)
RNA: B4 RNA with U25C, G26C, C29G
DNA 1: CAATCTGAATTCCGGTCTCCC
DNA 2: TGGTGGCTACGACGGGATT
B10: CUCUGCC (DNA:RNA)
RNA: B1 RNA with C26U, G27C, A28U
DNA 1: CAATCTGAATTCCGGTCTCCC
DNA 2: TGGTGGCTACGACGGGATT
B11: GCCCAUG (DNA:RNA)
RNA: B4 RNA with U25G, G26C, U28C, C29A
DNA 1: CAATCTGAATTCCGGTCTCCC
DNA 2: TGGTGGCTACGACGGGATT
B12: UUUCCUU (DNA:RNA)
RNA: B4 RNA with G26U, C27U, U28C, G31U
DNA 1: CAATCTGAATTCCGGTCTCCC
DNA 2: TGGTGGCTACGACGGGATT
B13: CUGAGAG (DNA:RNA)
RNA: B1 RNA with C26U, C30A, C31G
DNA 1: CAATCTGAATTCCGGTCTCCC
DNA 2: TGGTGGCTACGACGGGATT
B14: UCUCCGG (DNA:RNA)
RNA: B4 RNA with G26C, C27U, U28C, U30G
DNA 1: CAATCTGAATTCCGGTCTCCC
DNA 2: TGGTGGCTACGACGGGATT
B15: GAUCGUU (DNA:RNA)
RNA: B1 RNA with C25G, C26A, G27U, A28C, C30U, C31U
DNA 1: CAATCTGAATTCCGGTCTCCC
DNA 2: TGGTGGCTACGACGGGATT
B16: CGCGCCU (DNA:RNA)
RNA: B4 RNA with U25C, U28G, U30C, G31U
DNA 1: CAATCTGAATTCCGGTCTCCC
DNA 2: TGGTGGCTACGACGGGATT
B17: AAGCACC (DNA:RNA)
RNA: B1 RNA with C25A, C26A, A28C, G29A
DNA 1: CAATCTGAATTCCGGTCTCCC
DNA 2: TGGTGGCTACGACGGGATT
B18: GUGUCGA (DNA:RNA)
RNA: B4 RNA with U25G, G26U, C27G, U30G, G31A
DNA 1: CAATCTGAATTCCGGTCTCCC
DNA 2: TGGTGGCTACGACGGGATT
B19: AUCAGGA (DNA:RNA)
RNA: B1 RNA with C25A, C26U, G27C, C30G, C31A
DNA 1: CAATCTGAATTCCGGTCTCCC
DNA 2: TGGTGGCTACGACGGGATT
B20: GCGUAGG (DNA:RNA)
RNA: B1 RNA with C25G, A28U, G29A, C30G, C31G
DNA 1: CAATCTGAATTCCGGTCTCCC
DNA 2: TGGTGGCTACGACGGGATT
B21: UAGCAGU (DNA:RNA)
RNA: B1 RNA with C25U, C26A, A28C, G29A, C30G, C31U
DNA 1: CAATCTGAATTCCGGTCTCCC
DNA 2: TGGTGGCTACGACGGGATT
B22: UAACACG (DNA:RNA)
RNA: B4 RNA with G26A, C27A, U28C, C29A, U30C
DNA 1: CAATCTGAATTCCGGTCTCCC
DNA 2: TGGTGGCTACGACGGGATT
B23: CCCGCUG (DNA:RNA)
RNA: B4 RNA with U25C, G26C, U28G
DNA 1: CAATCTGAATTCCGGTCTCCC
DNA 2: TGGTGGCTACGACGGGATT
B24: GGAGGAC (DNA:RNA)
RNA: B1 RNA with C25G, C26G, G27A, A28G, C30A
DNA 1: CAATCTGAATTCCGGTCTCCC
DNA 2: TGGTGGCTACGACGGGATT
B25: CAACUUC (DNA:RNA)
RNA: B1 RNA with C26A, G27A, A28C, G29U, C30U
DNA 1: CAATCTGAATTCCGGTCTCCC
DNA 2: TGGTGGCTACGACGGGATT
B26: GUGUGUG (DNA:RNA)
RNA: B4 RNA with U25G, G26U, C27G, C29G
DNA 1: CAATCTGAATTCCGGTCTCCC
DNA 2: TGGTGGCTACGACGGGATT
B27: AAAUCAG (DNA:RNA)
RNA: B4 RNA with U25A, G26A, C27A, U30A
DNA 1: CAATCTGAATTCCGGTCTCCC
DNA 2: TGGTGGCTACGACGGGATT
B28: UCGCGAC (DNA:RNA)
RNA: B1 RNA with C25U, A28C, C30A
DNA 1: CAATCTGAATTCCGGTCTCCC
DNA 2: TGGTGGCTACGACGGGATT
B29: UGCAUUC (DNA:RNA)
RNA: B4 RNA with U28A, C29U, G31C
DNA 1: CAATCTGAATTCCGGTCTCCC
DNA 2: TGGTGGCTACGACGGGATT
B30: AUGACCU (DNA:RNA)
RNA: B1 RNA with C25A, C26U, G29C, C31U
DNA 1: CAATCTGAATTCCGGTCTCCC
DNA 2: TGGTGGCTACGACGGGATT
B31: AGACUCC (DNA:RNA)
RNA: B1 RNA with C25A, C26G, G27A, A28C, G29U
DNA 1: CAATCTGAATTCCGGTCTCCC
DNA 2: TGGTGGCTACGACGGGATT

Numbering of substitutions follows the chain as printed; changes in the protein carry UniProt numbers. This is one part of the list.

For the test, the target named is T1, RBFOX1 RRM. Briefly: EMSA; HiTS-Eq, 1 nM pool, 10 min; buffer printed only for the single-RNA assays: 10 mM Tris pH 7.5, 150 mM NaCl, 3.4 mM EDTA, 0.001% NP-40, 30 C. As to conditions: tags: His6 N-terminal (pET28a); label: 5' 32P. The method, boiled down:
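A pool of RNA with 7 randomized nucleotides, 5′-radiolabelled and with DNA-annealed flanks, was equilibrated at 1 nM for 10 min in 50 µL with purified RbFox RRM, wild type or mutant, across increasing protein concentrations. Free RNA was separated by 8% native PAGE, excised, reverse-transcribed, barcoded by PCR and sequenced. Relative association constants were obtained from read-count changes of each RNA species versus the control reaction and normalised to the cognate motif.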
Regarding B1, the binding signal is 0.00658 KA relative to UGCAUGU.
Turning to B2, the binding signal is 0.00498 KA relative to UGCAUGU.
As to B3, the binding signal was 0.0155 KA relative to UGCAUGU.
Consider B4, for which the binding signal was 0.0266 KA relative to UGCAUGU.
In the case of B5, the binding signal is 0.0166 KA relative to UGCAUGU.
On to B6, for which the binding signal was 0.00459 KA relative to UGCAUGU.
To B7 belongs 0.00592 KA relative to UGCAUGU.
Regarding B8, the binding signal was 0.00406 KA relative to UGCAUGU.
With B9, the binding signal is 0.004 KA relative to UGCAUGU.
In the case of B10, the binding signal is 0.0121 KA relative to UGCAUGU.
For the molecule B11, the binding signal is 0.0116 KA relative to UGCAUGU.
Turning to B12, the binding signal was 0.0063 KA relative to UGCAUGU.
As for B13, the binding signal is 0.018 KA relative to UGCAUGU.
For B14 the value was 0.0159 KA relative to UGCAUGU; for B15, 0.0149 KA relative to UGCAUGU; for B16, 0.0116 KA relative to UGCAUGU.
With B17, the binding signal was 0.00479 KA relative to UGCAUGU.
For B18 the value was 0.0182 KA relative to UGCAUGU.
For the molecule B19, the binding signal is 0.00195 KA relative to UGCAUGU.
With B20, the binding signal was 0.0115 KA relative to UGCAUGU.
In the case of B21, the binding signal is 0.0129 KA relative to UGCAUGU.
To B22 belongs 0.00641 KA relative to UGCAUGU.
B23: the binding signal was 0.013 KA relative to UGCAUGU.
Regarding B24, the binding signal was 0.00695 KA relative to UGCAUGU.
For B25 the value was 0.00358 KA relative to UGCAUGU.
Turning to B26, the binding signal is 0.0282 KA relative to UGCAUGU.
Regarding B27, the binding signal is 0.00495 KA relative to UGCAUGU.
Regarding B28, the binding signal is 0.00468 KA relative to UGCAUGU.
For the molecule B29, the binding signal is 0.0105 KA relative to UGCAUGU.
On to B30, for which the binding signal was 0.00461 KA relative to UGCAUGU.
As for B31, the binding signal was 0.00645 KA relative to UGCAUGU.
